Results from PubChem BioAssay AID360 (National Center for Advancing Translational Sciences (NCATS), 2006).
The campaign covered roughly 48,000 compounds. About 550 (1.1%) were called active. Roughly 4% stayed inconclusive and do not appear here. No stated cut-off is given here; in the data, active means potency below about 15 µM; inconclusive means mostly about 16 µM to 33 µM; inactive means weaker than that. The list shows a part of the results.

Biological target: Lysosomal acid glucosylceramidase (Homo sapiens) (UniProt P04062)
Sequence of UniProt P04062 (P04062 whole entry, looked up): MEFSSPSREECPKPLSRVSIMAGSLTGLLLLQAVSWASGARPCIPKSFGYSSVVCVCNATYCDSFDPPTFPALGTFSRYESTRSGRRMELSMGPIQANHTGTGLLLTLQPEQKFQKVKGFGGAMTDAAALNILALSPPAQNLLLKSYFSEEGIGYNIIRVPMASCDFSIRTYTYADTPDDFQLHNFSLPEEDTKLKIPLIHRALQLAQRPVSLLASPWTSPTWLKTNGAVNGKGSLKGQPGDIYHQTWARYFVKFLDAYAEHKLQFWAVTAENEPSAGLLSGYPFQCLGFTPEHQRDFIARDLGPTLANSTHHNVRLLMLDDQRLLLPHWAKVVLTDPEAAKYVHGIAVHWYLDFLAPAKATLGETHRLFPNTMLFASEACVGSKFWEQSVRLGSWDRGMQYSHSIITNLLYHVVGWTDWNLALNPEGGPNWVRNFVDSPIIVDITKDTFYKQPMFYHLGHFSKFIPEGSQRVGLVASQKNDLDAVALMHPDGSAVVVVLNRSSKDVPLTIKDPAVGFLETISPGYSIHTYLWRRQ
Assay: Glucocerebrosidase;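 further: the screen sought inhibitors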
Conditions: purified enzyme, resorufin glucoside fluorescence (screen aimed at inhibitors), 20 min; series mostly up to 77 µM
Procedure, shortened: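 Wild-type enzyme at 0.2 nM final in 50mM citric acid/KH2PO4, 10mM sodium taurocholate, 0.01% tween-20, pH 5.9, with resorufin beta-D-glucopyranoside at 30 uM final. Compounds titrated, 20 min at RT, red fluorescence read; AC50 from titration.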
Potency means the concentration at half of the fitted maximal effect.

Potency, inactive:
O=C(NCc1ccccc1)c1noc2c1CCCC2 > 76.9 µM
CCOC(=O)C1CCN(C(=O)CNC(=O)OC(C)(C)C)CC1 > 76.9 µM
CN(C)S(=O)(=O)c1ccc(S(=O)(=O)N(CC(=O)Nc2ccccc2)Cc2ccco2)cc1 > 76.9 µM
S=c1[nH]c2ccc(Cl)cc2[nH]1 > 76.9 µM
C=CCn1c(SCC(=O)Nc2cc(C)ccc2C)nnc1-c1cnccn1 > 76.9 µM
CCCc1nn(CCc2ccccn2)c(N)c1CC
CCCCC(c1nnnn1CCOC)N1CCN(C(=O)c2ccco2)CC1 (stereo unspecified) > 76.9 µM
CC(=O)c1cc2cc(O)ccc2o1 > 76.9 µM
COC(=O)c1cn(CC(=O)NCc2ccco2)c2ccccc12 > 76.9 µM
O=C(O)c1cc2cc(Cl)ccc2oc1=O > 76.9 µM
CCC(C(=O)NCc1ccc(F)cc1)N(Cc1ccco1)C(=O)c1snc(C(N)=O)c1N (stereo unspecified) > 76.9 µM
O=C(OCc1cc2ccccc2[nH]c1=O)c1cccnc1 > 76.9 µM
CCOC(=O)c1cccc(NC(=O)CSc2nnc(-c3cccnc3)n2C)c1 > 76.9 µM
C=CCNc1sc(C(=O)c2cccs2)c(N)c1C#N > 76.9 µM
CCCCn1c(CN2CCN(c3cccc(Cl)c3)CC2)nc2c1c(=O)[nH]c(=O)n2C > 76.9 µM
Cn1nc(C(=O)OCCN2C(=O)c3ccccc3C2=O)c2ccccc2c1=O > 76.9 µM
COc1ccc(C2CC(C(F)(F)F)n3nc(C(=O)O)cc3N2)cc1OC (stereo unspecified) > 76.9 µM
O=C(Cn1nc(C(F)F)cc1C1CC1)NCCC1=CCCCC1 > 76.9 µM
CCn1c(SCC(=O)NCc2ccccc2)nnc1-c1ccccc1O > 76.9 µM
CCOC(=O)N1CCC(n2c(SCC(=O)NCc3ccccc3)nc3ccccc3c2=O)CC1 > 76.9 µM
O=C(CSc1nnc(CN2CCOCC2)n1-c1ccccc1)Nc1ccc(Cl)cc1 > 76.9 µM
CCN(CC)S(=O)(=O)c1ccc(C(=O)NCc2n[nH]c(=S)n2-c2ccccc2OC)cc1 > 76.9 µM
CC1CCN(C(c2ccc(N(C)C)cc2)c2nnnn2Cc2ccccc2)CC1 (stereo unspecified) > 76.9 µM
CCc1[nH]nc2c1C1(CCN(C(=O)OCc3ccccc3)CC1)C(C#N)=C(N)O2 > 76.9 µM
COc1ccccc1CCNC(=O)c1ccoc1C > 76.9 µM
CCn1c(SCC(=O)N2CCC(C(N)=O)(N3CCCCC3)CC2)nc2ccccc2c1=O > 76.9 µM
COc1nc2cc(C)ccc2cc1-c1noc(-c2cccnc2)n1 > 76.9 µM
O=C(Nc1cc(C(F)(F)F)ccc1N1CCOCC1)c1cncc(Br)c1 > 76.9 µM
C=CCN(c1ccc(C(N)=O)cc1)S(C)(=O)=O > 76.9 µM
COc1cc(CCC(=O)OCC(=O)Nc2ncc(Cl)cc2Cl)cc(OC)c1OC > 76.9 µM
CCOc1ccc(-c2nnn(CC(=O)Nc3cc(OC)cc(OC)c3)n2)cc1OCC > 76.9 µM
CCOc1ccccc1C1C(C#N)=C(N)Nc2onc(-c3ccccc3)c21 (stereo unspecified) > 76.9 µM
Cc1ccnc(SCCn2c(Br)nc3c2c(=O)[nH]c(=O)n3C)n1 > 76.9 µM
O=C(O)c1ccc(CS(=O)(=O)c2cccc(C(F)(F)F)c2)o1 > 76.9 µM
COCCCNC(=O)C1CC(=O)N(CCc2ccc(OC)c(OC)c2)C1 (stereo unspecified) > 76.9 µM
COCCn1c(SCC(=O)c2ccccc2)nc2c(c1=O)SC(C)C2 (stereo unspecified) > 76.9 µM
Nn1c(SC/C=C/c2ccccc2)nnc1-c1ccco1 > 76.9 µM
Cc1ccc2cc(CN(C(=O)C3CCCO3)C3CCCCC3)c(=O)[nH]c2c1 (stereo unspecified) > 76.9 µM
CCN(CC)CCNC(=O)CCCCn1c(=S)[nH]c2c([nH]c3ccc(OC)cc32)c1=O
C=CCC(NCCCO)c1cccc(OC)c1OC (stereo unspecified) > 76.9 µM
CCn1c2ccccc2c2nc3cc(S(=O)(=O)N4CCOCC4)ccc3nc21 > 76.9 µM
CC(C)N1CC(C(=O)Nc2ccc(Br)c(Cl)c2)CC1=O (stereo unspecified) > 76.9 µM
CCOc1cc(C(=O)Nc2ccc(N3CCN(S(C)(=O)=O)CC3)cc2)cc(OCC)c1OCC > 76.9 µM
c1ccc(-n2ncc3c2ncn2c(C4CCCCC4)nnc32)cc1 > 76.9 µM
Cc1c(NC(=O)CSc2ccccc2C(=O)Nc2cccnc2)c(=O)n(-c2ccccc2)n1C > 76.9 µM
COCCNc1nnc(SCC(=O)c2ccc3c(c2)OCO3)s1 > 76.9 µM
COCC(=O)Nc1nc2n(n1)C(c1ccccc1Cl)CC(c1ccc(OC)cc1)N2 (stereo unspecified) > 76.9 µM
O=C(CSc1ccc2nnc(-c3ccccc3)n2n1)N1CCCCC1 > 76.9 µM
O=C(NCCN1CCc2ccccc2C1)C1CCN(S(=O)(=O)N2CCCCC2)CC1 > 76.9 µM
CCOc1ccc(N2CC(C(=O)NCCc3ccc(OC)c(OC)c3)CC2=O)cc1 (stereo unspecified) > 76.9 µM
CCC(Sc1nc2c(c(=O)[nH]1)CCC2)C(=O)Nc1cccc(OC)c1 (stereo unspecified) > 76.9 µM
COCCOC(=O)C(C#N)c1nc2ccccc2nc1N1CCCC1 (stereo unspecified) > 76.9 µM
CCc1nc2oc3cc(OC)ccc3c(=O)c2c(=O)n1-c1ccccc1 > 76.9 µM
CCc1nn(CC(=O)NCCCN(CC)Cc2ccccc2)c(=O)c2cc3sccc3n12 > 76.9 µM
CCC(c1nnnn1CCc1ccccc1)N1CCN(c2ccc(OC)cc2)CC1 (stereo unspecified) > 76.9 µM
CC1Oc2ccccc2N(Cc2cccnc2)C1=O (stereo unspecified) > 76.9 µM
CC(C)(C)NC(=O)Cn1c(SCC(=O)N2CCCCCC2)nc2ccccc21 > 76.9 µM
Cc1[nH]n2c(=O)c(C#N)c(-c3ccccc3)nc2c1-c1ccccc1 > 76.9 µM
COc1cccc(-c2cc(C(=O)NCc3ccco3)no2)c1 > 76.9 µM
CCOC(=O)N1CCN(C(=O)c2cccc(OC)c2OC)CC1 > 76.9 µM
COc1cccc(C(=O)CSc2nnc(-c3ccco3)n2CC2CCCO2)c1 (stereo unspecified) > 76.9 µM
O=C(Oc1cc(=O)oc2ccccc12)c1ccco1 > 76.9 µM
Cn1c(=O)n(Cc2ccc(F)cc2)c(=O)c2c1nc1n2CCCN1Cc1ccccc1 > 76.9 µM
CCC(=O)Nc1ccc2c(c1)nc(CCN1CCN(C)CC1)n2C > 76.9 µM
O=C(c1ccco1)N1CCN(c2c(-c3ccccc3)c3cc(Cl)ccc3[nH]c2=O)CC1 > 76.9 µM
Cc1ccc(C)c(N(CC(=O)N(C)C)S(C)(=O)=O)c1 > 76.9 µM
c1cc(-c2noc(-c3ccc4c(c3)OCO4)n2)ccn1 > 76.9 µM
CCOC(=O)c1ccc(Oc2nc(NC)nc(SC)n2)cc1 > 76.9 µM
O=C(CCCN1CCOCC1)c1ccc2c(c1)OCCO2 > 76.9 µM
COc1ccccc1N1CCN(C(=O)Cn2nc(C(F)(F)F)c3c2CCC3)CC1 > 76.9 µM
CCOC(=O)CCc1c(C)c2ccc(OCC(=O)OC(C)C)cc2oc1=O
COc1ccc(-c2noc(CN3CCN(c4ccccc4F)CC3)n2)cc1OC > 76.9 µM
COC(=O)C1=C(C)OC(N)=C(C#N)C1c1cc(OC)c(OCC(N)=O)cc1Cl (stereo unspecified) > 76.9 µM
C=CCNC(=O)CCCOc1cc(C)ccc1C > 76.9 µM
COc1cccc(-c2cc(C(=O)Nc3ccc(OC)c(OC)c3)no2)c1 > 76.9 µM
CC(C)n1c(SCC(N)=O)nc2c1c(=O)n(C)c(=O)n2C > 76.9 µM
O=c1[nH]c(C(F)(F)F)nc2ccccc12 > 76.9 µM
O=C(NCc1ccc(F)cc1)c1cccc(S(=O)(=O)N2CCCC2)c1 > 76.9 µM
COc1ccc(C)cc1S(=O)(=O)NC1CCCC1 > 76.9 µM
Cc1occc1-c1nnc(SCC(=O)c2c[nH]c3ccccc23)n1C > 76.9 µM
CCn1nc(NC(=O)c2ccncc2)c2cc3ccccc3nc21 > 76.9 µM
Cn1c(C(=O)N2CCCc3ccccc32)cc2c(=O)n3ccccc3nc21 > 76.9 µM
CC(C)(C)c1cc(C(=O)NCc2ccco2)ccn1 > 76.9 µM
CC(C)C(=O)Nc1cc(=O)[nH]c2ncnn12 > 76.9 µM
Cc1ccccc1-n1c(-c2ccncc2)n[nH]c1=S > 76.9 µM
Cc1cc(NC2C3CC4CC(C3)CC2C4)n2nnnc2n1 (stereo unspecified) > 76.9 µM
Cc1cc(C)nc(NC2=NC3CCCCC3N2)n1 (stereo unspecified) > 76.9 µM
Cc1ccc(N2CCN(CCc3nc4cc(NC(=O)c5ccco5)ccc4n3C)CC2)cc1 > 76.9 µM
COc1ccc(C)cc1C(=O)C1CC(C(=O)O)C(C)(C)C1C (stereo unspecified) > 76.9 µM
COc1ccc2[nH]c(=O)c(CN(CCCN(C)C)C(=O)Nc3ccccc3)cc2c1 > 76.9 µM
COc1ccc(CCN(C(=O)c2ccc(F)cc2)C2=CC3CCC(C2)N3C)cc1OC (stereo unspecified) > 76.9 µM
